# About 4,200 (1.3%) of roughly 330,000 compounds were called active. This list was built around the results that the source calls inconclusive (neither active nor inactive); the mix of calls is not that of the screen. The call rests on the fitted dose curve; in most records, active means well fitted activation curve with a large enough effect; inconclusive means small, poorly fitted or top-dose-only effect; inactive means no such curve, though single readings can be large or run the other way. Potencies of inconclusive entries are doubtful fits and often do not repeat.
# Test: qHTS screen for small molecules that induce genotoxicity in human embryonic kidney (HEK293T) cells expressing luciferase-tagged ELG1; further: nearly all actives have a fitted effect of over 60% in size
# Settings: HEK293T ELG1-luciferase reporter, luminescence, 16 h; series mostly up to 46 µM
# How it was run: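 Cells (2,000/well) expressing the ELG1-luciferase fusion are dosed by pin tool and kept 16 hr at 37 °C, 5% CO2. Signal comes from ONE-Glo luciferase reagent after 30 min at room temperature.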
# Potency means the concentration at half of the fitted maximal effect; tags describe the fitted curve by direction and shape.
row,Structure (SMILES),Potency
1,O=[N+]([O-])c1nn(-c2ccc3c(c2)OCCO3)n(O)c1=NCc1ccc(F)cc1,"inconclusive: 4.11 µM [activator, partial curve]"
2,O=C(Nc1ccc(N2CCOCC2)nc1)c1c(F)cccc1F,"inconclusive: 23.1 µM [activator, partial curve, poor fit]"
3,CCc1ccc(S(=O)(=O)NCCc2csc(-c3ccccc3)n2)s1,"inconclusive: 25.9 µM [activator, single point]"
4,COc1ccc(O)c(/C=N/N2CCOCC2)c1,"inconclusive: 20.6 µM [activator, partial curve, poor fit]"
5,COc1ccc(CCNC(=O)CN(C)S(=O)(=O)c2cccs2)cc1,inactive
6,CC(=O)Nc1nccc(-c2cc(-c3ccccc3)no2)n1,"inconclusive: 18.3 µM [activator, partial curve]"
7,COc1cccc(-n2c(C)nc3c(cnn3-c3ccc(C)cc3)c2=O)c1,"inconclusive: 23.1 µM [activator, single point]"
8,CC1=C(C)CC(C(=O)NNC(=O)c2ccccc2O)C(C(=O)O)C1 (stereo not given),"inconclusive: 18.4 µM [activator, single point]"
9,O=C(Nc1cccnc1Cl)c1ccc(Cl)cc1,"inconclusive: 13 µM [activator, partial curve]"
10,N#C/C(=C\Nc1ccc2c(c1)OCCO2)c1nc(-c2ccccc2)cs1,"inconclusive: 32.6 µM [activator, partial curve, poor fit]"
11,Cc1cc(Cl)ccc1OC(C)C(=O)Nc1ccc([N+](=O)[O-])cn1 (stereo not given),inactive
12,O=c1cc(-c2ccccc2)nc2nc(COc3ccccc3)[nH]n12,inactive
13,COc1cccc(N2CCN(C(=O)CN3C(=O)NC(C)(c4ccc5ccccc5c4)C3=O)CC2)c1 (stereo not given),"inconclusive: 18.3 µM [activator, partial curve, poor fit]"
14,COc1ccc(OCc2cc(C(=O)N3CCCC3)no2)c2ccccc12,"inconclusive: 4.11 µM [activator, single point]"
15,Brc1ccc2[nH]c3c(N4CCc5ccccc5C4)ncnc3c2c1,"inconclusive: 29.1 µM [activator, partial curve, poor fit]"
16,O=C(/C=C/c1cccc(Cl)c1)c1nc2ccccc2[nH]1,inactive
17,O=C(NC1CCN(S(=O)(=O)c2ccc(F)cc2)CC1)c1ccc(F)cc1,"inconclusive: 20.6 µM [activator, partial curve, poor fit]"
18,O=C(CSCc1cccc(Cl)c1)N/N=C/c1ccc(OCC(=O)N2CCCCC2)cc1,inactive
19,Cc1ccc(C)n1-c1ccc(NC(=O)c2ccccc2)cc1,"inconclusive: 20.6 µM [activator, partial curve]"
20,C=CC[C@@H](CC(=O)N(CCO)Cc1ccccc1)C(=O)NC[C@@H](OC(=O)[C@@H](CC=C)CC(=O)OC(C)(C)C)c1ccccc1,inactive
21,CCOC(=O)c1[nH]c2ccc(OC)cc2c1NC(=O)/C=C/c1ccc2c(c1)OCO2,"inconclusive: 29.1 µM [activator, single point]"
22,O=C(NCC1CCCO1)c1ccc(-c2ccccc2Cl)o1 (stereo not given),"inconclusive: 16.4 µM [activator, partial curve]"
23,O=C(Nc1ccc(Cl)cn1)Nc1cccs1,"inconclusive: 12.6 µM [activator, single point]"

row,Structure (SMILES),Potency
1,COC(=O)c1ccc(Nc2ncnc3c2cnn3-c2cccc(C)c2)cc1,inactive
2,Cc1[nH]c2ccccc2c1C(=O)CSC(=S)N1CCCCC1,"inconclusive: 18.4 µM [activator, partial curve]"
3,O=C(Nc1ccc(NC(=O)C2CC2)nc1)c1ccco1,"inconclusive: 8.2 µM [activator, partial curve, poor fit]"
4,CC(Oc1ccc(Cl)cc1Cl)c1nc(-c2ccc(NC(=O)c3ccccn3)cc2)no1 (stereo not given),"inconclusive: 18.4 µM [activator, partial curve]"
5,O=C(NCCc1ccccc1)c1cc2ncc(Br)cn2n1,active: 16.4 µM
6,O=[N+]([O-])c1ccccc1N/N=C1\CCc2ccccc21,"inconclusive: 4.61 µM [activator, partial curve]"
7,O=C(CSc1ccc(-c2ccccc2)nn1)N1CCCCC1,"inconclusive: 14.6 µM [activator, partial curve, poor fit]"
8,O=C(CCS(=O)(=O)c1ccccc1)NC1CCCCC1,active: 14.6 µM
9,O=C1CCc2cc(S(=O)(=O)N3CCCCC3)cc3c2N1CC3,"inconclusive: 29.1 µM [activator, partial curve, poor fit]"
10,O=c1n(-c2ccc(Br)cc2)cnn1-c1ncccc1[N+](=O)[O-],"inconclusive: 20.6 µM [activator, partial curve]"
11,COc1cccc(NC(=O)c2ccccc2)c1,"inconclusive: 13 µM [activator, partial curve]"
12,c1ccc(Cc2ccc(OCCn3ccnc3)cc2)cc1,"inconclusive: 7.3 µM [activator, partial curve, poor fit]"
13,CC(C)Nc1nnc(SCC(=O)c2c(N)n(Cc3ccccc3)c(=O)n(C)c2=O)s1,inactive
14,COC(=O)C1=C(c2ccc(OC)cc2)OC(=O)C1(C)C,inactive
15,C=CCN=C1NN=C(c2ccc3c(c2)OCCO3)CS1,active: 0.58 µM
16,COc1ccc(-n2ncc3c(N4CCCc5ccccc54)ncnc32)cc1,active: 1.16 µM
17,COc1ccc(NC(=O)c2c(Cl)n(C)c3ccccc23)cc1,inactive
18,CC(=O)c1ccc(N/C=C\C(=O)c2ccc(C)cc2)cc1,active: 8.2 µM
19,O=c1c2ccc([N+](=O)[O-])cc2ncn1CCOc1ccc(Cl)cc1,inactive
20,Cc1ccc2nsnc2c1NC(=O)Cc1ccc(Cl)cc1,"inconclusive: 29.1 µM [activator, partial curve, poor fit]"
21,Cc1ccc(-c2nc3c(c(=O)c4ccccc4n3C)c(=O)n2-c2ccc(F)cc2)cc1,"inconclusive: 29.1 µM [activator, partial curve, poor fit]"
22,COc1ccc(/C=N/NC(=O)c2ccc(=O)n(C)c2)cc1OC,"inconclusive: 20.6 µM [activator, single point]"
